Reference: patent publication US9433687B2, “Anti-Notch3 antibodies and antibody-drug conjugates” (Pfizer Inc., priority 2012, dated 2016)

What was measured:
[1] = molecular target: T1, full-length human Notch3 expressed on the cell surface of U2OS/hNotch3 cells (Homo sapiens, UniProt Q9UM47); test: Cell-based ELISA, U2OS/hNotch3 cells; conditions: Table 29; two value columns; LB = lacked binding
T1 construct: U-2 OS cells stably over-expressing human or mouse full length Notch3 protein on cell surface; expressed in transfected cells; host or cells: U-2 OS (human osteosarcoma)
T1 sequence (Q9UM47 40-2321): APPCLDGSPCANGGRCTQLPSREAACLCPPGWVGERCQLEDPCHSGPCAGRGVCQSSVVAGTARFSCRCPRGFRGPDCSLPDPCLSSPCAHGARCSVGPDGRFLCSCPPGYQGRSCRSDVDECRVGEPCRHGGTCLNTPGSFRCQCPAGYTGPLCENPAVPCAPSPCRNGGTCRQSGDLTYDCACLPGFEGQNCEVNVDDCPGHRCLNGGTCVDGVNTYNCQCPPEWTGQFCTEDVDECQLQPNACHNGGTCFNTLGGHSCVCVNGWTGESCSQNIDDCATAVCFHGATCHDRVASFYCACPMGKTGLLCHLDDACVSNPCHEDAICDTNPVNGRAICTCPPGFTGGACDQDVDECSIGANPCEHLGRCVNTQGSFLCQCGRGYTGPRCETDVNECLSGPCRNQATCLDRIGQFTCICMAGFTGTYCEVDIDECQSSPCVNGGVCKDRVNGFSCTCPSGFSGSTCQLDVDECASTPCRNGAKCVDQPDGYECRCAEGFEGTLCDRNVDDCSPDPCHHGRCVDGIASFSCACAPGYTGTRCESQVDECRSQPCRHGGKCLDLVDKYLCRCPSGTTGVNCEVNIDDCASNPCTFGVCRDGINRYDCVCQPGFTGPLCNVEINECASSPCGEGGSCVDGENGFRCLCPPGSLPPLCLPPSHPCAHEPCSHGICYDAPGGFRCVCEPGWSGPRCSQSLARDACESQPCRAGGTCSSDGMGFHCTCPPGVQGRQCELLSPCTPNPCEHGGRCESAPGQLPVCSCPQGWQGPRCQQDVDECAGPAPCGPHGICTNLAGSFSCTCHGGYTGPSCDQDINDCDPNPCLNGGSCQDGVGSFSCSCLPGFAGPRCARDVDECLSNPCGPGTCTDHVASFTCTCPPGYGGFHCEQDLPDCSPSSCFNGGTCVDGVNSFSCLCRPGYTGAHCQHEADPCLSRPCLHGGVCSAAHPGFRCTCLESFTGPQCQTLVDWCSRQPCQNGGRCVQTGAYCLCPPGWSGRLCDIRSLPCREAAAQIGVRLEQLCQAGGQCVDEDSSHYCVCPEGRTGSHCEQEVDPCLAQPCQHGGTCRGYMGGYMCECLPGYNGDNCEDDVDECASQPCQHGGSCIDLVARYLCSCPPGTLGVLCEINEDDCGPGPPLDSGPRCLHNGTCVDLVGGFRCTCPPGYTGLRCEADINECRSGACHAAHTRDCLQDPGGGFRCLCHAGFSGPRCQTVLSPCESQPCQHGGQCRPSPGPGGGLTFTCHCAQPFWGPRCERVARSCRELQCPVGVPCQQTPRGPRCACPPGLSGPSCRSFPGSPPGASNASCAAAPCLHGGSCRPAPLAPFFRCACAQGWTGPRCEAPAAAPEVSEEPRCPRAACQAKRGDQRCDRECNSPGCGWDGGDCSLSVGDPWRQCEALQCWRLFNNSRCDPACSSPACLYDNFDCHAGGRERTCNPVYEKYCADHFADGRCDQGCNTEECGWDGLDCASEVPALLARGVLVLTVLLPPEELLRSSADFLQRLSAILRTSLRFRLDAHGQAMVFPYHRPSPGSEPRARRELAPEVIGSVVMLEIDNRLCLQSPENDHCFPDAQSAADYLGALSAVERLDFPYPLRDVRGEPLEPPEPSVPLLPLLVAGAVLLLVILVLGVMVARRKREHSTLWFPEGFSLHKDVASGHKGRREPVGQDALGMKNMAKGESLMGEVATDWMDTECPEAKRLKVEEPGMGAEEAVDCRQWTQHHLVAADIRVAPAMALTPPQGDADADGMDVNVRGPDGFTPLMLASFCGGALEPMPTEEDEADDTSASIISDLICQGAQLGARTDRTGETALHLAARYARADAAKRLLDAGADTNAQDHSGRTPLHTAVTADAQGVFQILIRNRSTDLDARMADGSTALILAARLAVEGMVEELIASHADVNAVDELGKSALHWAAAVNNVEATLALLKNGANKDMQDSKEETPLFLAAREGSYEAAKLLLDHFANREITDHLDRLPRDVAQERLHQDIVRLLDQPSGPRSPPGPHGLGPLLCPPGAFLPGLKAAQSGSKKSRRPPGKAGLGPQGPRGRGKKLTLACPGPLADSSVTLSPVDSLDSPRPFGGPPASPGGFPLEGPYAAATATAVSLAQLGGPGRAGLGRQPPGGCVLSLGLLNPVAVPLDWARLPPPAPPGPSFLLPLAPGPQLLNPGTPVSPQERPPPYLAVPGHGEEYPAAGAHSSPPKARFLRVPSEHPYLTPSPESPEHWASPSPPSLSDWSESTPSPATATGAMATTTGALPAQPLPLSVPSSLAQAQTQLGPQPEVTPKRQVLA
Description: Humanized hu28 and hu75, and rat-human chimeric, ch28 and ch75, anti-Notch3 antibodies were screened for cell surface Notch3 binding in a cell-based ELISA. U-2 OS cells stably over-expressing human or mouse full length Notch3 protein on cell surface (hereinafter U2OS/hNotch3 and U2OS/mNotch3, respectively) were plated at 50,000 cells/well in 96 well plates (white opaque, BD/VWR) the day before ELISA assay. On the day of the ELISA, culture media was removed from wells and serially diluted (1:3 in blocking buffer) antibody solutions were applied to the plate. Plates were incubated at room temperature for 2 hours before being washed with PBS-Mg/Ca. HRP-conjugated secondary antibody was then applied and incubated with cells for 1 hour as described above for recombinant protein ELISA. Plates were washed with PBS-Mg/Ca before being developed with Pico-Chemiluminescent developing kit (Thermal Scientific), and chemiluminescence measurements were performed per manufacturer's instructions. Data plotting and analyses were performed with Microsoft Excel and Graphpad-Prism software.
Unconjugated anti-Notch3 antibodies, anti-Notch3 ADCs and a negative control antibody (huNeg8.8) were screened for cell surface binding activity to Notch3 expressing cell lines in a cell-based ELISA. Over-expressing Notch3 cell line, U2OS/hNotch3, and endogenous Notch3 expressing cell lines, HCC2429 and MDA-MB-468, were plated at 50,000, 200,000 and 100,000 cells/well, respectively, in 96 well plates (white opaque, BD/VWR) the day before ELISA assay. On the day of the ELISA, culture media was removed from wells and serially diluted (1:3 in DPBS with calcium chloride and magnesium chloride (Ca/Mg) and 1% BSA) antibody and ADC solutions were applied to the plate. Plates were incubated at room temperature for 2 hours before washed with DPBS with Ca/Mg and 1% BSA. HRP-conjugated secondary antibody was then applied and incubated with cells for 1 hour. […]

[2] = molecular target: T2, cell surface Notch3 on HCC2429 cells (Homo sapiens, UniProt Q9UM47); test: Cell-based ELISA, HCC2429 cells; conditions: Table 29; LB = lacked binding
T2 construct: endogenous Notch3 expressing cell lines, HCC2429 and MDA-MB-468; endogenous in cells; host or cells: HCC2429
T2 sequence (Q9UM47 40-2321): as above
Description: Unconjugated anti-Notch3 antibodies, anti-Notch3 ADCs and a negative control antibody (huNeg8.8) were screened for cell surface binding activity to Notch3 expressing cell lines in a cell-based ELISA. Over-expressing Notch3 cell line, U2OS/hNotch3, and endogenous Notch3 expressing cell lines, HCC2429 and MDA-MB-468, were plated at 50,000, 200,000 and 100,000 cells/well, respectively, in 96 well plates (white opaque, BD/VWR) the day before ELISA assay. On the day of the ELISA, culture media was removed from wells and serially diluted (1:3 in DPBS with calcium chloride and magnesium chloride (Ca/Mg) and 1% BSA) antibody and ADC solutions were applied to the plate. Plates were incubated at room temperature for 2 hours before washed with DPBS with Ca/Mg and 1% BSA. HRP-conjugated secondary antibody was then applied and incubated with cells for 1 hour. Plates were washed with DPBS with Ca/Mg and 1% BSA before being developed with Pico-Chemiluminescent developing kit (Thermal Scientific), and chemiluminescence measurements were performed per manufacturer's instructions. Data plotting and analyses were performed with Microsoft Excel and Graphpad-Prism software.
Unconjugated cysteine mutant humanized anti-Notch3 antibodies were screened for cell surface binding activity to Notch3 expressing cell lines in a cell-based ELISA, as described in previous Examples. […] For the control antibody that lacked binding (LB), EC50 values were not generated as indicated.

[3] = molecular target: T3, cell surface Notch3 on OVCAR3 cells (Homo sapiens, UniProt Q9UM47); test: Cell-based ELISA, OVCAR3 cells; conditions: Table 29; LB = lacked binding
T3 construct: Notch3 endogenously expressing cells MDA-MB-468, HCC2429 and OVCAR3; endogenous in cells; host or cells: OVCAR3
T3 sequence (Q9UM47 40-2321): as above

HCC2429 (lung cancer) = test: In vitro cytotoxicity (MTS), HCC2429; assay type: cell-based, human; conditions: Table 30
Description: (§1) The effects of anti-Notch3 ADCs were assessed on 1) cell lines endogenously expressing Notch3 protein: HCC2429 (lung cancer), OVCAR3 (ovarian cancer) and MDA-MB-468 (breast cancer), 2) cell lines engineered to over-express full length human Notch3 protein: MDA-MB-468/hNotch3 and U2OS/hNotch3, and 3) a negative control cell line (SW900) using an MTS cellular viability indicator (Promega, Madison, Wis.). These cell lines were cultured with increasing concentrations of anti-Notch3 ADCs comprising rat-human chimeric anti-Notch3 antibodies, ch28 and ch75, and humanized anti-Notch3 antibodies, hu28 and hu75, conjugated to various linker-payload combinations of the present invention. As a specificity control for the anti-Notch3-ADCs, non-targeted control-ADCs (huNeg8.8-ADCs or ch2H6-ADCs) were also tested on the same cell lines. After four days, viability of each culture was assessed. IC50 values were calculated by logistic non-linear regression, model #203 with XL fit v4.2 (IDBS, Guildford, Surry, UK) and presented as ng Ab/mL. The drug antibody ratio (DAR) is also provided.
(§2) This process generated the anti-Notch3 cysteine mutant ADCs: hu28-(L443C)-vc0101 and hu28-(L443C/κK183C)-vc0101. The activity of the anti-Notch3 cysteine mutant ADCs were assessed on cell lines endogenously expressing Notch3 protein: HCC2429 (lung cancer) and OVCAR3 (ovarian cancer) using an MTS cellular viability indicator as described in previous Examples.

[4] = system: OVCAR3 ovarian xenografts; test: OVCAR3 ovarian xenograft model; conditions: intravenously Q4d×4
OVCAR3 (ovarian cancer) = test: In vitro cytotoxicity (MTS), OVCAR3; assay type: cell-based, human; conditions: Table 30
Description: as §1, §2

B1: hu28-(L443C): hu28 with site-specific cysteine substitution L443C in the IgG1 heavy chain constant domain (antibody)
heavy: EVQLVESGGGLVQPGGSLRLSCAASGFTFRDYGMTWVRQAPGKGLEWVAYISSGSNYIYYAEAVKGRFTISRDNAKNSLYLQMNSLRAEDTAVYYCARRGPFVLDAWGQGTLVTVSSASTKGPSVFPLAPSSKSTSGGTAALGCLVKDYFPEPVTVSWNSGALTSGVHTFPAVLQSSGLYSLSSVVTVPSSSLGTQTYICNVNHKPSNTKVDKKV[letters of human IgG1 Fc with L443C (EU numbers) omitted]
light: DIQMTQSPSSLSASVGDRVTITCKASQSINRYLHWYQQKPGKAPKLLIYNANGLQTGVPSRFSGSGSGTDFTLTISSLQPEDFATYYCLQHNTWPDTFGGGTKVEIKRTVAAPSVFIFPPSDEQLKSGTASVVCLLNNFYPREAKVQWKVDNALQSGNSQESVTEQDSKDSTYSLSSTLTLSKADYEKHKVYACEVTHQGLSSPVTKSFNRGEC
EC50 [1]: 0.28 nM and 0.3 nM
EC50 [2]: 0.08 nM
EC50 [3]: 0.2 nM

B2: hu28-(L443C/κK183C): hu28 with cysteine substitutions L443C (heavy chain) and κK183C (kappa light chain) (antibody)
heavy: EVQLVESGGGLVQPGGSLRLSCAASGFTFRDYGMTWVRQAPGKGLEWVAYISSGSNYIYYAEAVKGRFTISRDNAKNSLYLQMNSLRAEDTAVYYCARRGPFVLDAWGQGTLVTVSSASTKGPSVFPLAPSSKSTSGGTAALGCLVKDYFPEPVTVSWNSGALTSGVHTFPAVLQSSGLYSLSSVVTVPSSSLGTQTYICNVNHKPSNTKVDKKV[letters of human IgG1 Fc with L443C (EU numbers) omitted]
light: DIQMTQSPSSLSASVGDRVTITCKASQSINRYLHWYQQKPGKAPKLLIYNANGLQTGVPSRFSGSGSGTDFTLTISSLQPEDFATYYCLQHNTWPDTFGGGTKVEIKRTVAAPSVFIFPPSDEQLKSGTASVVCLLNNFYPREAKVQWKVDNALQSGNSQESVTEQDSKDSTYSLSSTLTLSCADYEKHKVYACEVTHQGLSSPVTKSFNRGEC
EC50 [1]: 0.38 nM and 0.27 nM
EC50 [2]: 0.11 nM
EC50 [3]: 0.2 nM

B3: hu28-(L443C)-vc0101 (conjugate)
heavy: EVQLVESGGGLVQPGGSLRLSCAASGFTFRDYGMTWVRQAPGKGLEWVAYISSGSNYIYYAEAVKGRFTISRDNAKNSLYLQMNSLRAEDTAVYYCARRGPFVLDAWGQGTLVTVSSASTKGPSVFPLAPSSKSTSGGTAALGCLVKDYFPEPVTVSWNSGALTSGVHTFPAVLQSSGLYSLSSVVTVPSSSLGTQTYICNVNHKPSNTKVDKKV[letters of human IgG1 Fc with L443C (EU numbers) omitted]
light: DIQMTQSPSSLSASVGDRVTITCKASQSINRYLHWYQQKPGKAPKLLIYNANGLQTGVPSRFSGSGSGTDFTLTISSLQPEDFATYYCLQHNTWPDTFGGGTKVEIKRTVAAPSVFIFPPSDEQLKSGTASVVCLLNNFYPREAKVQWKVDNALQSGNSQESVTEQDSKDSTYSLSSTLTLSKADYEKHKVYACEVTHQGLSSPVTKSFNRGEC
IC50 (ng Ab/ml), HCC2429 (HCC2429 (lung cancer)): 20308 ng Ab/ml and 16879 ng Ab/ml and 14324 ng Ab/ml
tumor volume ([4]; DAY 2, dose 1 mg/kg): 235 mm3
tumor volume ([4]; DAY 2, dose 3 mg/kg): 244 mm3
tumor volume ([4]; DAY 6, dose 1 mg/kg): 295 mm3
tumor volume ([4]; DAY 6, dose 3 mg/kg): 259 mm3
tumor volume ([4]; DAY 9, dose 1 mg/kg): 346 mm3
tumor volume ([4]; DAY 9, dose 3 mg/kg): 240 mm3
tumor volume ([4]; DAY 12, dose 1 mg/kg): 359 mm3
tumor volume ([4]; DAY 12, dose 3 mg/kg): 198 mm3
tumor volume ([4]; DAY 15, dose 1 mg/kg): 349 mm3
tumor volume ([4]; DAY 15, dose 3 mg/kg): 142 mm3
tumor volume ([4]; DAY 19, dose 1 mg/kg): 383 mm3
tumor volume ([4]; DAY 19, dose 3 mg/kg): 115 mm3
tumor volume ([4]; DAY 22, dose 1 mg/kg): 427 mm3
tumor volume ([4]; DAY 22, dose 3 mg/kg): 94 mm3
tumor volume ([4]; DAY 26, dose 1 mg/kg): 519 mm3
tumor volume ([4]; DAY 26, dose 3 mg/kg): 85 mm3
tumor volume ([4]; DAY 29, dose 1 mg/kg): 624 mm3
tumor volume ([4]; DAY 29, dose 3 mg/kg): 97 mm3
tumor volume ([4]; DAY 33, dose 1 mg/kg): 789 mm3
tumor volume ([4]; DAY 33, dose 3 mg/kg): 114 mm3
tumor volume ([4]; DAY 36, dose 1 mg/kg): 942 mm3
tumor volume ([4]; DAY 36, dose 3 mg/kg): 146 mm3
tumor volume ([4]; DAY 40, dose 1 mg/kg): 1046 mm3
tumor volume ([4]; DAY 40, dose 3 mg/kg): 205 mm3
tumor volume ([4]; DAY 42, dose 1 mg/kg): 1130 mm3
tumor volume ([4]; DAY 42, dose 3 mg/kg): 246 mm3
tumor volume ([4]; DAY 47, dose 1 mg/kg): 1493 mm3
tumor volume ([4]; DAY 47, dose 3 mg/kg): 378 mm3
tumor volume ([4]; DAY 50, dose 3 mg/kg): 452 mm3
tumor volume ([4]; DAY 54, dose 3 mg/kg): 604 mm3
tumor volume ([4]; DAY 57, dose 3 mg/kg): 826 mm3
tumor volume ([4]; DAY 61, dose 3 mg/kg): 820 mm3
tumor volume ([4]; DAY −2, dose 1 mg/kg): 160 mm3
tumor volume ([4]; DAY −2, dose 3 mg/kg): 160 mm3
IC50 (ng Ab/ml), OVCAR3 (OVCAR3 (ovarian cancer)): 13129 ng Ab/ml and 15840 ng Ab/ml and 12189 ng Ab/ml

B4: hu28-(L443C/K392C): hu28 with cysteine substitutions L443C and K392C in the heavy chain constant domain (antibody)
heavy: EVQLVESGGGLVQPGGSLRLSCAASGFTFRDYGMTWVRQAPGKGLEWVAYISSGSNYIYYAEAVKGRFTISRDNAKNSLYLQMNSLRAEDTAVYYCARRGPFVLDAWGQGTLVTVSSASTKGPSVFPLAPSSKSTSGGTAALGCLVKDYFPEPVTVSWNSGALTSGVHTFPAVLQSSGLYSLSSVVTVPSSSLGTQTYICNVNHKPSNTKVDKKV[letters of human IgG1 Fc with K392C L443C (EU numbers) omitted]
light: DIQMTQSPSSLSASVGDRVTITCKASQSINRYLHWYQQKPGKAPKLLIYNANGLQTGVPSRFSGSGSGTDFTLTISSLQPEDFATYYCLQHNTWPDTFGGGTKVEIKRTVAAPSVFIFPPSDEQLKSGTASVVCLLNNFYPREAKVQWKVDNALQSGNSQESVTEQDSKDSTYSLSSTLTLSKADYEKHKVYACEVTHQGLSSPVTKSFNRGEC
EC50 [1]: 0.31 nM and 0.29 nM
EC50 [2]: 0.11 nM
EC50 [3]: 0.31 nM

Values joined by “and” are separate entries in the source; they are usually repeats but may differ in a detail not shown here. Equal entries are not always repeated.
